About 200 (0.47%) of roughly 43,000 compounds were called active. Not shown: some 12% with an inconclusive outcome. Calls follow the shape of the dose curve; as a rule, active = well fitted cell-killing curve with a large enough effect; inconclusive = small, poorly fitted or top-dose-only effect, or effect the other way; inactive = flat fitted curve, though single readings scatter. The list shows a part of the results.
% is scaled to controls: 0 for no effect and ±100 for the full control effect.

The nature of this test: Cell viability qHTS assay in S16 Pmp22-F2sN cells. Also: nearly all actives have a fitted effect of over 65% in size. Particulars: S16 Pmp22-F2sN Schwann cells (luciferase reporters placed in the Pmp22 gene) viability, CellTiter-Glo, 24 h; series mostly up to 57.5 µM; activity change, negative = cytotoxicity: at the top concentration. The gist of the method:
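Rat S16 Schwann reporter line, 24 h treatment with library compounds delivered at 23 nL per well. Cell viability by CellTiter-Glo luminescence.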
(In qHTS, concentration-response curves come from the screen itself.)
Consider `Cc1c(Cl)cccc1NC(=O)CSc1nc(=O)[nH]c2c1CCC2`, for which the “activity change, negative = cytotoxicity” value is inactive: -8.26%.
As for `Cc1c2cnn(-c3ccccc3)c(=O)c2c(C)n1CCCC(=O)Nc1cccc(F)c1`, the “activity change, negative = cytotoxicity” value was inactive: -9.71%.
On to `O=c1n(Cc2ccccc2)nc2n1-c1cc(Cl)ccc1OC2`, for which the “activity change, negative = cytotoxicity” value was inactive: 10.7%.
As for `COc1cc(OC)cc(C(=O)N2CCN(C(=O)COc3ccc(C)cc3)CC2)c1`, the figure is inactive: 3.35%; as for `COc1cccc(-n2c(SCC(=O)Nc3ccc4c(c3)OCO4)nc3c([nH]c4ccccc43)c2=O)c1`, inactive: 16.4%.
The same measure for `CCN(CC)c1ccc(NC(=O)Cn2nc3c(cc2=O)CCCC3)c(C)c1`: inactive: -6.97%; for `CCc1c(C)sc(NC(=O)c2cc3nc(-c4ccc(OC)cc4)cc(C(F)(F)F)n3n2)c1C(=O)OC`: inactive: 5.91%; for `Cc1ccccc1NC(=O)CSc1nc(-c2cccs2)nc2cc(=O)[nH]n12`: inactive: 2.69%.
The same measure for `COc1ccc(-n2nc(C(=O)Nc3cc(C)c(Cl)cc3OC)c3c4ccccc4n(C)c3c2=O)cc1`: inactive: -8.92%; for `CC(NS(=O)(=O)c1ccc2c(c1)CCN2C(=O)CCCC(=O)O)c1ccccc1` (stereo not drawn): inactive: -1.8%; for `O=C(Cn1cc(SCc2ccc(Cl)cc2)c2ccccc21)N1CCOCC1`: inactive: 8.41%.
For `CCCc1nn2c(=O)cc(COC(=O)c3cccc(NC(=O)c4ccc(OCC)cc4)c3)nc2s1`, the “activity change, negative = cytotoxicity” value is inactive: -12%.
As to `COc1cc(C2c3c(-c4cc(C)ccc4O)n[nH]c3C(=O)N2Cc2ccco2)cc(OC)c1OC` (stereo not drawn), the “activity change, negative = cytotoxicity” value was inactive: 18.8%.
As for `COC(=O)CSc1nc2sc3c(c2c(=O)n1-c1ccccc1)C(C)CCC3` (stereo not drawn), the figure is inactive: 4.61%; as for `CC(C)Oc1ccc(C(=O)Nc2nnc3n2CCS3)cc1`, inactive: -6.44%.
As for `COc1ccc(NC(=O)c2cc(S(=O)(=O)N3CCCC(C)C3)cn2C)c(OC)c1` (stereo not drawn), the figure is inactive: 6.08%.
As for `COc1ccc(NC(=O)CSc2nc3ccccc3n2CC(=O)N(C)C2CCCCC2)cc1`, the figure is inactive: -12.8%; as for `CCOC(=O)c1cc(-c2ccc(F)cc2)n(CCC(=O)Nc2cc(OC)cc(OC)c2)c1C`, inactive: -0.323%.
As to `O=C(Nc1ccccc1C(F)(F)F)C1CCN(S(=O)(=O)c2ccccc2)CC1`, the “activity change, negative = cytotoxicity” value was inactive: -2.42%.
Turning to `O=C(CSc1nc2ncccc2o1)Nc1ccc(Cl)cc1F`, the “activity change, negative = cytotoxicity” value was inactive: -4.1%.
As for `Cn1c(=O)c2c(nc(N3CCOCC3)n2Cc2ccccc2F)n(C)c1=O`, the figure is inactive: 8.53%; as for `Cc1ccc(-c2nc3cccc(C)n3c2Nc2ccc3c(c2)OCO3)o1`, inactive: -19.5%.
The same measure for `CCOc1ccccc1C(=O)N1CCc2cc(OC)c(OC)cc2C1COc1ccc(OC)cc1` (stereo not drawn): inactive: 11.2%; for `COc1cccc(CNC(=O)Cn2ncn3c(cc4ccccc43)c2=O)c1`: inactive: 5.65%.
In the case of `Cc1nn(-c2ccccc2)c(OC(=O)c2ccc(Cl)cc2)c1S(=O)(=O)c1ccccc1`, the “activity change, negative = cytotoxicity” value is inactive: 12.4%.
The same measure for `COc1ccc(OC)c(NC(=O)c2cc3cccc(OC)c3oc2=O)c1`: inactive: -2.34%; for `CCCNC(=O)c1ccc(Cn2c(SCC(N)=O)nc3ccccc3c2=O)cc1`: inactive: 17.8%.
The same measure for `O=C(c1cc(-c2ccc(Br)cc2)n[nH]1)N1CCN(S(=O)(=O)c2ccc(Cl)s2)CC1`: inactive: 3.1%.
As for `O=C(CSc1nc(=O)n(CCN2CCOCC2)c2c1CCC2)Nc1ccc(F)cc1F`, the figure is inactive: 4.89%.
As for `COCCCn1c(SCC(=O)Nc2ccc(OC)cc2)nc2c(sc3ccccc32)c1=O`, the “activity change, negative = cytotoxicity” value is inactive: 10.7%.
In the case of `CC(C)CC(=O)Nc1ccc2nc(SCC(=O)N3CCOCC3)sc2c1`, the “activity change, negative = cytotoxicity” value is inactive: 0.537%.
As for `COc1ccc(CNS(=O)(=O)c2cc3c(cc2Cl)NC(=O)CO3)cc1`, the figure is inactive: 0.137%; as for `CCC(=O)Oc1c(Sc2ccc(C)cc2)c(C)nn1-c1ccccc1`, inactive: -2.26%.
The same measure for `O=C(CCC1N=C2c3ccccc3N=C(SCc3ccc(F)cc3)N2C1=O)N1CCN(c2ccccc2)CC1` (stereo not drawn): inactive: -25.4%; for `COc1ccc(N2CCN(C(=O)CCCCn3c(=O)[nH]c4ccsc4c3=O)CC2)cc1`: inactive: -25%; for `Clc1ccc(-c2nc3ncccn3c2Nc2ccc3c(c2)OCCO3)cc1`: inactive: 21.1%.
As for `CCOC(=O)c1ccc(N2C(=O)c3n[nH]c(-c4cccs4)c3C2c2cccc(O)c2)cc1` (stereo not drawn), the figure is inactive: -17.5%; as for `COc1ccc(N(C)C(=O)c2oc(=O)c3ccccc3c2-c2ccc(C)cc2)c(OC)c1`, inactive: 5.29%; as for `N#Cc1c(-n2ncnc2-c2ccccc2Cl)sc2c1CCCCC2`, inactive: -2.5%.
For the compound `Cc1cccc(Nc2cc(C)nc3nc(-c4ccccc4)nn23)c1`, the “activity change, negative = cytotoxicity” value was inactive: -8.6%.
The same measure for `CC1=C(C(=O)Nc2cccc(F)c2)C2(CCCCC2)OC1=O`: inactive: 1.26%.
The same measure for `CC(C)c1ccc(CNC(=O)c2ccc(N3CCCC3)c(NC(=O)NCc3ccc(F)cc3)c2)cc1`: inactive: -0.822%; for `COC(=O)c1c(SCC(=O)Nc2ccccc2C(F)(F)F)[nH]c2ccc(Cl)cc2c1=O`: inactive: 14.1%.
For the compound `CCOC(=O)C1CCN(C(c2ccc(C)cc2)c2sc3nc(-c4ccco4)nn3c2O)CC1` (stereo not drawn), the “activity change, negative = cytotoxicity” value is inactive: 2.33%.
The same measure for `CCOc1ccc(/C=C(\C#N)C(=O)Nc2sc3c(c2C(=O)OC)CCC3)cc1OC`: inactive: 1.48%; for `COc1ccc(-c2cc(C(F)(F)F)nc(SCCC(=O)Nc3ccc(F)cc3F)n2)cc1`: inactive: 18.4%.
With `CCOCCCNC(=O)CN1C(=O)COc2ccc(S(=O)(=O)N3CCOCC3)cc21`, the “activity change, negative = cytotoxicity” value was inactive: 0.731%.
Take `O=C(CSc1ccc2nc(-c3ccccc3)cn2n1)Nc1ccccc1`: the “activity change, negative = cytotoxicity” value was inactive: 3.37%.

The record behind these values is PubChem BioAssay AID1508642 (National Center for Advancing Translational Sciences (NCATS), 2021).
